From patent publication USRE49495 (Affibody, dated 2023) come the findings set out here.

As a reminder, the Kd is a measure of binding affinity in units of concentration. Read a high Kd as lower affinity. For orientation: koff means the first-order rate constant of dissociation. High values mean a short-lived complex, low ones a long-lived complex. A word on the kon: it is the rate constant with which the complex forms. A high value points to fast association.

Changes are numbered by the printed parent chain.

The labels stand for the following.
B1: PSI0242 (designed binder)
chain: AEAKYAKEVLEAWDEIDRLPNLTIEQWLAFINKLDDDPSQSSELLSEAKKLNDSQAPKVDGSLAEAKEAANAELDSYGVSDFYKRLIDKAKTVEGVEALKDAILAALP
B2: PSI0378 (designed binder)
chain: B1 chain with N52S, D53E, D60E
notes: positions 52-53 changed from ND to SE against PSI0242
B3: PSI0381 (designed binder)
chain: B1 chain with N52E, D53S, D60E
notes: positions 52-53 changed from ND to ES against PSI0242
B4: PSI0334 (designed binder)
chain: B1 chain with N52S, D53E
notes: as for B2
B5: Z09782 (designed binder)
chain: MGSSHHHHHHLQAEAKYAKENLFAGWEISDLPNLTDYQRNAFIYKLWDDPSQSSELLSEAKKLNDSQAPK
B6: Z17351 (designed binder)
chain: B5 chain with N64S, D65E
notes: also called Z017351
B7: Z17355 (designed binder)
chain: B5 chain with D65E
B8: Z17359 (designed binder)
chain: B5 chain with N64S
B9: Z17343 (designed binder)
chain: MGSSHHHHHHLQAEAKYAKELIEAAAEIDALPNLTRRQWNAFIKKLVDDPSQSSELLSEAKKLSESQAPK
notes: also called Z017343
B10: Z15805 (designed binder)
chain: B9 chain with S64N, E65D

One test deals with T1, human C5 (Quidel, cat. no. A403) (human, UniProt P01031 19-673; P01031 678-1676, limits assumed).
T1 construct: Bought protein; also called hC5; human complement component 5
Kind of test: BLI (ForteBio), compound captured on HSA sensor, human C5 0.79-25 nM, 1:1 model. In general terms: BLI is a label-free optical method that tracks binding on a fibre tip over time.
For B1, the “Rel. KD” value is 1 ratio to PSI0242.

Consider B2, for which the “Rel. KD” value was 1.3 ratio to PSI0242.

For the molecule B3, the “Rel. KD” value is 23 ratio to PSI0242.

As for B4, the “Rel. KD” value was 1.1 ratio to PSI0242.

A further test addresses T2, human CAIX (R&D Systems, cat. no. 2188-CA) (human, UniProt Q16790 59-414). Kind of test: SPR Biacore 2000, CAIX on CM5 chip, 1:1 Langmuir; sample (0) before stability test; reference Z09782 (0). In general terms: In SPR one partner is held on a chip, and binding of the other changes the refractive index at the surface.
Molecule B5 had a KDInv/KDOrig of 1 ratio.

The molecule B6 registered a KDInv/KDOrig of 2.49 ratio.

For the molecule B7, the KDInv/KDOrig stood at 1.12 ratio.

In the case of B8, the KDInv/KDOrig came to 1.82 ratio.

A further test addresses T3, human PDGF-Rβ (R&D Systems, cat. no. 385-PR-100/CF) (human, UniProt P09619 33-530, limits assumed).
T3 construct: Bought; also called platelet-derived growth factor receptor beta
T3 sequence (P09619 33-530 limits assumed): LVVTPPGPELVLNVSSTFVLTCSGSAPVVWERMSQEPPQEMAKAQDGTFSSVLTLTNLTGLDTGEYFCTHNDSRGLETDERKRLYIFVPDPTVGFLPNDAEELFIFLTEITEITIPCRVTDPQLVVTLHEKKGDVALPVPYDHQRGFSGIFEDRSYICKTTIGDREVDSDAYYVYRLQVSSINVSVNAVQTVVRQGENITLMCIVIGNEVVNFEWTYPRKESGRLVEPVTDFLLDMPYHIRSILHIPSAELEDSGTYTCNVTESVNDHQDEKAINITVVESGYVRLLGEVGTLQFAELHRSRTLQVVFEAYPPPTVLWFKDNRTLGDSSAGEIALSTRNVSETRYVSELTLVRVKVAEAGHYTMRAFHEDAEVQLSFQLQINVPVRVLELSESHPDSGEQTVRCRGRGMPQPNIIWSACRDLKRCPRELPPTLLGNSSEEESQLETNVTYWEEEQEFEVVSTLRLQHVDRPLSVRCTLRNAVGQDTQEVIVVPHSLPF
As to the kind of experiment: SPR Biacore 2000, PDGF-Rβ on CM5 chip, 1:1 binding with mass transfer; sample (2w) after 2 weeks at 37 C; reference Z15805 (2w).
Consider B9, for which the KDInv/KDOrig was 0.93 ratio.

As for B10, the KDInv/KDOrig is 1 ratio.

For a further test, the target named is T3, human PDGF-Rβ (R&D Systems, cat. no. …). As to the kind of experiment: SPR Biacore 2000, PDGF-Rβ on CM5 chip, 1:1 binding with mass transfer; sample (0) before stability test.
B9 yielded a Kd of 0.37 nM, a koff of 0.00177 s⁻¹ and a kon of 4.8e+06 M⁻¹ s⁻¹.

As for B10, the Kd was 0.19 nM, the koff was found to be 0.00139 s⁻¹ and the on-rate constant (kon) was 7.15e+06 M⁻¹ s⁻¹.

The target is the same in another test. Kind of test: SPR Biacore 2000, PDGF-Rβ on CM5 chip, 1:1 binding with mass transfer; sample (2w) after 2 weeks at 37 C.
B9 came in with a Kd of 0.23 nM, a koff of 0.00171 s⁻¹ and a kon of 6.45e+06 M⁻¹ s⁻¹.

B10 gave a Kd of 0.29 nM, a koff of 0.00166 s⁻¹ and a kon of 5.81e+06 M⁻¹ s⁻¹.

The target in a further test is T2, human CAIX (R&D Systems, cat. no. …). Kind of test: SPR Biacore 2000, CAIX on CM5 chip, 1:1 Langmuir; KD after 2 weeks at 37 C against KD before.
For B5, the “KD(2w)/KD(0)” value was 1.41 ratio.

With B6, the “KD(2w)/KD(0)” value amounted to 0.86 ratio.

In the case of B7, the “KD(2w)/KD(0)” value came out at 1.35 ratio.

For the molecule B8, the “KD(2w)/KD(0)” value was 1.02 ratio.

For the next test the target is unchanged. Kind of test: SPR Biacore 2000, CAIX on CM5 chip, 1:1 Langmuir; sample (2w) after 2 weeks at 37 C; reference Z09782 (2w).
Consider B5, for which the KDInv/KDOrig was determined as 1 ratio.

Consider B6, for which the KDInv/KDOrig turned out to be 1.52 ratio.

For the molecule B7, the KDInv/KDOrig was 1.07 ratio.

Molecule B8 yielded a KDInv/KDOrig of 1.32 ratio.

The next test addresses T3, human PDGF-Rβ (R&D Systems, cat. no. …). As to the kind of experiment: SPR Biacore 2000, PDGF-Rβ on CM5 chip, 1:1 binding with mass transfer; sample (0) before stability test; reference Z15805 (0).
On to B9, for which the KDInv/KDOrig came to 1.9 ratio.

B10 registered a KDInv/KDOrig of 1 ratio.

For a further test the target is unchanged. As to the kind of experiment: SPR Biacore 2000, PDGF-Rβ on CM5 chip, 1:1 binding with mass transfer; KD after 2 weeks at 37 C against KD before.
Take B9: the “KD(2w)/KD(0)” value was 0.72 ratio.

Take B10: the “KD(2w)/KD(0)” value was 1.47 ratio.

A further test addresses T2, human CAIX (R&D Systems, cat. no. …). Kind of test: SPR Biacore 2000, CAIX on CM5 chip, 1:1 Langmuir; sample (0) before stability test.
Take B5: the Kd was determined as 7 nM, the koff was 0.00146 s⁻¹ and the kon was 208000 M⁻¹ s⁻¹.

As to B6, the Kd was 18 nM, the koff worked out at 0.00263 s⁻¹ and the kon stood at 151000 M⁻¹ s⁻¹.

In turn, B7 registered a Kd of 7.9 nM, a koff of 0.00123 s⁻¹ and a kon of 157000 M⁻¹ s⁻¹.

The molecule B8 gave a Kd of 13 nM, a koff of 0.00215 s⁻¹ and a kon of 168000 M⁻¹ s⁻¹.

For another test the target is unchanged. As to the kind of experiment: SPR Biacore 2000, CAIX on CM5 chip, 1:1 Langmuir; sample (2w) after 2 weeks at 37 C.
B5 registered a Kd of 9.9 nM, a koff of 0.00138 s⁻¹ and a kon of 140000 M⁻¹ s⁻¹.

In turn, B6 returned a Kd of 15 nM, a koff of 0.00286 s⁻¹ and an on-rate (kon) of 191000 M⁻¹ s⁻¹.

B7 registered a Kd of 11 nM, a koff of 0.00123 s⁻¹ and a kon of 116000 M⁻¹ s⁻¹.

As for B8, binding was put at a Kd of 13 nM, the koff is 0.00233 s⁻¹ and the on-rate (kon) worked out at 178000 M⁻¹ s⁻¹.
